In all, about 45,000 compounds went through this assay and about 200 (0.44%) were called active. Another 7% or so got no clear call; they are omitted. Calls follow the shape of the dose curve; as a rule, active = well fitted activation curve with a large enough effect; inconclusive = small, poorly fitted or top-dose-only effect; inactive = no such curve, though single readings can be large or run the other way. The list shows a part of the results.
assay: qHTS of TDP-43 Inhibitors: NCGC Sytravon Library Screen; details: yeast TDP-43 toxicity rescue, BacTiter-Glo growth, 24 h; series mostly up to 46.1 µM; growth rescue (activation): at the top concentration; also: 0% is about no effect; nearly all actives have a fitted effect of over 55% in size
Procedure, shortened: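 TDP-43-expressing yeast, pregrown in raffinose, seeded at OD600 0.02 in galactose medium with compound for 24 hr at 30 deg C. Growth read by BacTiter-Glo luminescence, so rescue of toxicity appears as activation.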

Compound	growth rescue (activation)
O=C(C1CCCO1)N1CCN(C(=S)Nc2ccccc2)CC1 (centres undefined)	inactive: -22.6%
COc1cc(CC(=O)Nc2ccc3c(c2)CCC3)cc(OC)c1OC	inactive: 8.52%
O=C(CNC(=O)c1cccs1)c1ccc(Br)cc1	inactive: 19.3%
O=C(NNc1c(F)c(F)cc(F)c1F)c1ccc(Cl)nc1	inactive: 14.1%
CC1(C)OC(=O)N(CCC(=O)Nc2cccc(F)c2)C1(C)O (centres undefined)	inactive: -6.57%
CC(CNS(=O)(=O)c1ccccc1)Sc1ncccn1 (centres undefined)	inactive: 11.2%
COc1ccc(OC)c(NC(=O)CN(Cc2ccc(F)cc2)C2CCCCC2)c1	inactive: 1.17%
O=C(CSCc1c(F)cccc1Cl)NCc1ccncc1	inactive: 8.78%
CC(C)NC(=O)NC(=O)CSc1ccc(S(=O)(=O)N2CCCC2)cn1	inactive: 2.25%
CCOc1ccc(NC(=O)NC(C)CC)cc1 (centres undefined)	inactive: -14.3%
Cc1ccc(C(=O)NC(=S)NCC2CCCO2)cc1[N+](=O)[O-] (centres undefined)	inactive: 11.9%
Cc1ncc(CO)c(/C=N/NC(=O)c2cc3c(s2)CCCC3)c1O	inactive: 19.5%
COc1ccc(OCC(=O)OCC(=O)NC2CCCC2)cc1	inactive: 3.82%
O=C(COc1ccc(-n2cnnn2)cc1)Nc1cc(Cl)cc(Cl)c1	inactive: -4.78%
Cn1c(N)c(C(=O)CSc2nc3ccccc3c(=O)n2Cc2ccccc2)c(=O)n(C)c1=O	inactive: 18.3%
O=C(Nc1ccc(O)cc1)c1ccc2c(c1)C(=O)N(Cc1ccco1)C2=O	inactive: 0.25%
CC(C)(C)NC(=O)Cc1ccc(Cl)c(Cl)c1	inactive: 6.54%
Cc1nc2nc3c(c(=O)n2[nH]1)CCCC3	inactive: 7.56%
CCCCN(C)c1c(C)nc2ccc(C(=O)NCCOc3ccc(OC)cc3)cn12	inactive: 9.67%
CCC(=O)N1CCc2cc(S(=O)(=O)N3CCc4ccccc43)ccc21	inactive: 21.6%
Clc1ccccc1Nc1nnc(-c2ccncc2)s1	inactive: -11.4%
Cc1cc([N+](=O)[O-])nn1CC(=O)NC1CCCCC1	inactive: 1.83%
Cc1ccc(S(=O)(=O)N2CCOCC2)cc1C(=O)NCCN1C(=O)S/C(=C\c2ccccc2Cl)C1=O	inactive: 2.24%
CCOc1ccc(N(CC(=O)OC)S(=O)(=O)c2ccc(OC)c(OC)c2)cc1	inactive: -1.51%
Cc1ccc(C)c(-n2c(=O)c(C#N)cc3c(=O)n4ccccc4nc32)c1	inactive: -9.43%
CCCc1nc(NCc2ccccc2)c(C#N)c2c1CCCC2	inactive: 5.14%
O=C(c1ccccc1)N1CCCCCC1	inactive: 15.4%

Compound	growth rescue (activation)
O=C(NCC(c1ccco1)N1CCCC1)c1ccc(-n2cccn2)cc1 (centres undefined)	inactive: -11.4%
COc1cccc(/C=N/NC(=O)c2ccc(N3CCCC3=O)cc2)c1	inactive: 8.86%
CCCS(=O)(=O)C(=C1NCCO1)S(=O)(=O)CCC	inactive: -23.6%
CC(NS(=O)(=O)c1ccc2c(c1)OCCCO2)C(=O)O (centres undefined)	inactive: -4.64%
O=c1cc(CN2CCN(S(=O)(=O)/C=C/c3ccccc3)CC2)c2ccc(O)cc2o1	inactive: 15.8%
Cc1ccc(C(=O)NCCNc2nc3cc(C)c(C)cc3cc2C)cc1	inactive: 12%
CCCCOc1ccc(N2C(=O)CC(NCc3ccncc3)C2=O)cc1 (centres undefined)	inactive: -0.278%
Cc1nn(CC(=O)NCCN2CCOCC2)c(C)c1[N+](=O)[O-]	inactive: 4.18%
O=C(NCC1CCCN(C(=O)c2cscn2)C1)c1ccccc1Cl (centres undefined)	inactive: -0.724%
CC(=O)Nc1ccc(SCC(=O)Nc2ccccc2N2CCOCC2)cc1	inactive: -0.45%
O=C(NCCCc1ccccc1)[C@@H]1Cc2ccccc2CN1	inactive: -7.85%
COc1ccc(S(=O)(=O)NC(CCSC)C(=O)NC2CCCCC2)cc1 (centres undefined)	inactive: 5.35%
O=C(CNS(=O)(=O)c1ccc(Br)s1)NCCc1ccc(Cl)cc1	inactive: -5.74%
CCCC(=O)Nc1c(-c2ccccc2)c(=O)c(C)nn1-c1ccccc1	inactive: 7.59%
COc1cc(OC)c(NC(=O)Cn2cnc3sc(C)c(S(=O)(=O)N4CCOCC4)c3c2=O)cc1Cl	inactive: 10.7%
COc1cc(/C=C/C(=O)OCC(=O)NCCC2=CCCCC2)cc(OC)c1OC	inactive: 27.4%
COC(=O)c1ccccc1NC(=O)Nc1ccc(C)cn1	inactive: 5.93%
CC(=O)Nc1ccc(S(=O)(=O)Nc2cc3c(cc2C(C)=O)OCO3)cc1	inactive: 6.99%
COC(=O)C(=O)/C=C(\O)c1c(C)cc(C)cc1C	inactive: -9.21%
CCCn1c(SCC(=O)Nc2ccc(C)c(S(=O)(=O)N3CCOCC3)c2)n[nH]c1=O	inactive: -17.8%
O=C(Nc1ccc2[nH]c(=O)[nH]c2c1)C(F)(F)F	inactive: 2%
Cc1ccc(C(C(=O)NC2CCCCC2)N(Cc2cccnc2)C(=O)c2csnn2)cc1 (centres undefined)	inactive: -6.63%
COc1cccc(CC2(CO)CCCN(Cc3cc4ccccc4[nH]3)C2)c1 (centres undefined)	inactive: 10.4%
COc1ccccc1OCC(=O)n1cc(C(=O)c2cc(Cl)cc(Cl)c2O)cn1	inactive: -0.342%
Cc1ccnc(-n2sc3ccccc3c2=O)n1	inactive: -92.9%
Cc1ccc(OCCCCNC2CCCC(C)C2C)c(C)c1 (centres undefined)	inactive: -2.56%
CC[C@@H](C)[C@H](NC(=O)C1CCN(C(=O)[C@@H](NS(=O)(=O)c2ccc(C)cc2)C(C)C)CC1)C(=O)O	inactive: -1.42%

From PubChem BioAssay AID1347073 (National Center for Advancing Translational Sciences (NCATS), 2019)
